PubChem BioAssay AID1948 (National Center for Advancing Translational Sciences (NCATS), 2009)
Among all 110,000 compounds or so, about 20 (0.02%) were called active. The shares of active, inactive and inconclusive entries below differ from those in the screen. Calls follow the shape of the dose curve; as a rule, active = well fitted activation curve with a large enough effect; inconclusive = small, poorly fitted or top-dose-only effect; inactive = no such curve, though single readings can be large or run the other way. Potencies of inconclusive entries are left out as doubtful fits.

Experiment: qHTS Assay for Compounds that Induce Erasure of Genomic Imprints;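 as to activity change, positive = activation: 0% = negative control wells on the plate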
Settings: mouse ES Peg3-LacZ reporter, beta-gal luminescence, 40 h; activity change, positive = activation: at 10.9 µM (top of the series) unless noted
In short: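 Imprint erasure is scored as LacZ activity from the silenced maternal Peg3 allele in feeder-free female ES cells cultured 40 h with LIF. Luminescence is normalized to in-plate negative controls and fitted to the Hill equation.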
Potency is read from the fitted curve at half-maximal effect; tags tell the direction and shape of the fitted curve.

SMILES | activity change, positive = activation | Potency
Cc1cc(C(=O)O)c2c(=O)n(C)c(=O)n(C)c2n1 | inconclusive: 84% [activator] | 
CCOc1ccccc1NC(=O)Nc1nnc(N(C)Cc2ccccc2)s1 | inactive: -4.47% | 
CCCCNC(=O)CCC(=O)NNc1nc2ccccc2c2nc(-c3ccccc3)nn12 | inconclusive: 64.9% [activator] | 
CCc1ccccc1NC(=O)c1ccc(F)c(S(=O)(=O)NC2CCCCCC2)c1 | inconclusive: 30.8% [activator] | 
O=C(NC1CC2CCCC(C1)N2C(=O)NC1CCCCC1)c1ccccc1 (stereo unspecified) |  | inconclusive [activator, single point]
O=C(Cn1nc2c(cc1=O)CCCC2)Nc1ccc(F)cc1F | inconclusive: 47.3% [activator] | 
O=c1c2cn[nH]c2nc(SCc2ccc3c(c2)OCCO3)n1-c1ccccc1 |  | inconclusive [activator, single point]
Cc1ccc(-n2c(SCC(=O)N3CCCC3)nc3c(c2=O)SCC3)cc1 |  | inconclusive [activator, single point]
N#Cc1ccc(CSc2nnc(-c3ccncc3)n2CCc2ccccc2)cc1 |  | inconclusive [activator, single point]
O=C1Cc2c([nH]c3ccc(Br)cc23)-c2ccccc2N1 |  | inactive
COc1cccc(C(=O)Nc2cc(-c3cn4cccnc4n3)ccc2C)c1OC | inconclusive: 111% [activator] | 
Cc1cccc(CNc2ncncc2-c2cccc(NS(C)(=O)=O)c2)c1 | inactive: 12.3% [at 60.7 µM] | 
O=c1c(-c2ccccc2)nc2cnc(Oc3ccccc3)nc2n1C[C@H]1CCCO1 |  | inconclusive [activator, single point]
CCCCN(CCCNC(=O)CN1N=C(c2ccccc2)CCC1=O)c1ccccc1 | inconclusive: 54.2% [activator] | 
COc1ccc(-n2c(=O)c(-c3cccc(C#N)c3)nc3cnc(N4CCNCC4)nc32)cc1 |  | inconclusive [activator, single point]
CCN(CC)S(=O)(=O)c1nnc(NC(=O)COc2ccccc2)s1 | inactive: -5.92% | 
COc1ccccc1NC(=O)C(C)NS(=O)(=O)c1ccccc1 (stereo unspecified) |  | inconclusive [activator, single point]
Cc1cc(F)ccc1NC(=O)CCS(=O)(=O)c1cccc2nsnc12 | inactive: 16.7% | 
Cc1cccc(NC(=O)CSc2nc3c(oc4ccccc43)c(=O)n2-c2ccccc2)c1C | inconclusive: 43.5% [activator] | 
CCCN(CCC)CCCNC(=O)c1cc2c(-c3ccc(Cl)cc3)nn(C)c2s1 | inactive: 2.29% | 
Cc1ccc(NC(=O)CSc2nc3c(c(=O)[nH]2)CN(Cc2ccccc2)CC3)cc1Cl | inconclusive: 39.3% [activator] | 
Cc1cc(Cl)ccc1OCc1cc(=O)n2c3c(sc2n1)CCCC3 | inactive: -8.06% | 
COc1ccccc1Cc1nc2ccccc2nc1SCC(=O)N1CCC(C)CC1 | inactive: -8.19% | 
CCCc1cc(=O)oc2cc(C)c(CN3CCCC3)c(O)c12 | inactive: 2.39% [at 60.7 µM] | 
O=C(O)CCn1cnc2ccccc2c1=O |  | inconclusive [activator, single point]
COc1cccc(-c2cc(NCc3ccccc3)ncn2)c1 | inactive: -10.5% [at 60.7 µM] | 

SMILES | activity change, positive = activation | Potency
CCn1cnc2c1c(=O)n(Cc1nnc3n1-c1ccccc1SC3)c(=O)n2Cc1ccccc1 |  | inconclusive [activator, single point]
Cc1ccc(NC(=O)c2cc(S(=O)(=O)N3CCCC3)c[nH]2)c(C)c1 | inconclusive: 36.4% [activator] | 
CCOc1ccc(CNS(=O)(=O)c2ccc(-c3coc(C)n3)cc2)cc1OC | inconclusive: 33% [activator] | 
CCN(CC)CCCNC(=O)c1nn(-c2ccc(C)cc2)c(=O)c2c1c1ccccc1n2C | inconclusive: 35.3% [activator] | 
Cc1cc(C)cc(N2CC(c3nc4ccccc4n3C)CC2=O)c1 (stereo unspecified) |  | inconclusive [activator, single point]
O=C(CSc1nnc(Cc2cc(=O)[nH]c(=O)[nH]2)n1-c1ccccc1)N1CCCc2ccccc21 |  | inconclusive [activator, single point]
COC(=O)Cn1c(CN2CCc3ccccc3C2)nc2c1c(=O)n(C)c(=O)n2C | inactive: -38.7% [at 60.7 µM] | 
Cc1ccc(OC(C)C(=O)N2CCc3ccccc32)cc1 (stereo unspecified) |  | inconclusive [activator, single point]
CC1CCN(C(=O)C2Cc3ccccc3CN2S(=O)(=O)c2ccc(F)cc2)CC1 (stereo unspecified) | inactive: -15.6% [at 60.7 µM] | 
CC(NC(=O)Cn1ncc2c3ccccc3n(Cc3ccc(F)cc3)c2c1=O)c1ccccc1 (stereo unspecified) | inconclusive: 40.9% [activator] | 
CCOC(=O)N1CCN(S(=O)(=O)N2CCCC(C(=O)NCc3cccc(OC)c3)C2)CC1 (stereo unspecified) | inconclusive: 74.3% [activator] | 
CC1=C(C(=O)Nc2ccccc2)C(c2ccccc2C)n2ncc(C(=O)Nc3ccccc3)c2N1 (stereo unspecified) | inconclusive: 56.1% [activator] | 
COc1cc(C2c3c(oc4cc(C)c(C)cc4c3=O)C(=O)N2CCCN2CCOCC2)ccc1O (stereo unspecified) | inactive: 9.49% | 
CCn1cc(C(=O)NCCCOC(C)C)c(=O)c2cc(S(=O)(=O)N3CCc4ccccc4C3)ccc21 | inactive: 12.8% | 
Cn1c(=O)oc2cc(S(=O)(=O)N3CCC(C(=O)NCc4ccccc4Cl)CC3)ccc21 | inconclusive: 67.1% [activator] | 
COCCn1c(CCC(=O)Nc2cc(C)ccc2C)nc2cccnc21 | inconclusive: 53.8% [activator] | 
Nc1nc(Nc2cccc(C(F)(F)F)c2)sc1C(=O)c1ccccc1 | inactive: -5.71% | 
COc1ccc(Cl)cc1NC(=O)C1CCCN(S(=O)(=O)c2cccc3nonc23)C1 (stereo unspecified) |  | inconclusive [activator, single point]
CN1CCN(C(=O)Cn2ncc3c4ccccc4n(Cc4ccc(F)cc4)c3c2=O)CC1 | inactive: 27.5% | 
CN(C)CCCNC(=O)C(=O)NCC(c1ccc2c(c1)OCO2)N1CCOCC1 (stereo unspecified) | inactive: 27.6% | 
COc1ccccc1OC[C@H](O)COC(N)=O |  | inconclusive [activator, single point]
Cc1ccc(NC(=O)Cn2c(-c3nonc3N)nc3ccccc32)c(Br)c1 | inactive: -8.92% | 
O=C(NCCSc1c(-c2ccc(Br)cc2)[nH]c2ccccc12)c1ccc(S(=O)(=O)N2CCOCC2)cc1 | inactive: -19.3% | 
CCCc1oc2ccc(NS(=O)(=O)c3ccc(OC)cc3)cc2c1C(=O)OCC | inactive: -23.3% | 
Cc1cc(C)cc(NC(=O)Cn2nnc(C(=O)NCc3ccco3)c2N)c1 | inconclusive: 69% [activator] | 
O=C(Cn1nc2c(cc1=O)CCCC2)NCc1ccccc1Cl | inactive: 13.3% | 

SMILES | activity change, positive = activation | Potency
Cc1nc2cc(NC(=O)NCCC3=CCCCC3)ccc2o1 | inactive: -32.1% [at 60.7 µM] | 
O=S(=O)(c1ccc(C2CCCCC2)cc1)N1CCN(c2cc(Cl)ccc2Cl)CC1 | inconclusive: 34.6% [activator] | 
CC(C)CCNC(=O)CN(Cc1ccc2c(c1)OCO2)C(=O)CCC(=O)Nc1ccccn1 |  | inconclusive [activator, partial curve, poor fit]
Cc1ccccc1NC(=O)NCCc1c[nH]c2ccccc12 | inconclusive: 33.6% [activator] | 
COc1cccc(-c2nn(C)c3sc(C(=O)N4CCOCC4)cc23)c1 | inactive: -7.63% [at 60.7 µM] | 
Cc1ccc(-n2ncc3c(Nc4ccc(Oc5ccccc5)cc4)ncnc32)c(C)c1 | inconclusive: 47.7% [activator] | 
CCOC(=O)C1CCN(S(=O)(=O)c2ccc3[nH]c(=O)oc3c2)CC1 | inactive: -11.9% [at 60.7 µM] | 
O=c1c(-c2cccs2)nc2cncnc2n1-c1ccccc1 |  | inconclusive [activator, full curve, poor fit]
CCN(CC)C(c1ccc(C)cc1)c1nnnn1C1CCCCC1 (stereo unspecified) | inactive: -14.6% [at 60.7 µM] | 
CC(C)C1N=C2c3ccccc3N=C(SCC(=O)NCc3ccc(Cl)cc3)N2C1=O (stereo unspecified) | inactive: -10.9% | 
COc1ccc(Cn2c(=O)c3cccnc3n(CC(=O)Nc3c(C)cc(C)cc3C)c2=O)cc1 | inconclusive: 41% [activator] | 
c1cc2[nH]snc2c2nc(C3CC3)nc12 |  | inconclusive [activator, single point]
COc1cccc(-c2ccc3ncnc(NCCNC(C)=O)c3c2)c1 |  | inconclusive [activator, full curve, poor fit]
CSc1ncnc2c1ncn2CC(=O)[C@H]1CC[C@H]2[C@H]3CCC4=CC(=O)CC[C@@]4(C)[C@@H]3CC[C@@]12C | inactive: -5.25% | 
COc1ccc(N(C)C(=O)NCc2noc3ccc(C)cc23)c(OC)c1 | inconclusive: 37.9% [activator] | 
O=C(COC(=O)Cn1cnc2ccccc21)NCCc1ccccc1 |  | inconclusive [activator, single point]
COc1ccc(CCNC(=O)CCn2c(=O)c3cccn3c3ccc(F)cc32)c(OC)c1OC | inactive: -2.44% | 
Cc1ccc(Cn2c(SCC(=O)NCc3ccc(Cl)cc3)nc3ccsc3c2=O)cc1 | inconclusive: 35.3% [activator] | 
O=C(CSc1nc2ccccc2c2nc(-c3ccccc3)nn12)Nc1ccc(Br)cc1 | inconclusive: 90.3% [activator] | 
CCCc1cnc2c(c1SCC(=O)N(C)c1ccccc1)c(=O)n(C)c(=O)n2C | inconclusive: 30.8% [activator] | 
Clc1cccc(N2CCN(c3nc4ccccc4n4cnnc34)CC2)c1 | inconclusive: 40.7% [activator] | 
COc1ccc(NC(=O)CCc2nnc3n(C)c(=O)c4sccc4n23)cc1 | inactive: -7.47% | 
COc1ccc(CCNC(=O)C2CCCN(C(=O)N(C)C)C2)c(OC)c1 (stereo unspecified) |  | inconclusive [activator, single point]
O=S(=O)(O)C(c1ccccc1)[C@@H](O)c1ccccc1 (stereo partly specified) | inactive: -15.7% | 
